# Data taken from the supplement of paper PMC8728848.
# Some of the results follow.
# How the values were obtained:
# Experiment in all cases: glycan array binding signal (z-score within array); higher = stronger binding
# Settings in all cases: glycan notation: IUPAC condensed, linker removed
# [1] = molecular target: Gal(b1-3)GlcNAc(b1-3)Gal(b1-4)GlcNAc(b1-2)Man(a1-3)[Gal(b1-3)GlcNAc(b1-3)Gal(b1-4)GlcNAc(b1-2)Man(a1-6)]Man(b1-4)GlcNAc(b1-4)GlcNAc
# Procedure, shortened: (§1)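 Glycan array binding is given as a within-array Z-score, which can be read as non-binding when negative. The arrays, 3228 of them, came from the Consortium for Functional Glycomics database and were retained only where the protein sequence was available. Z-scores were averaged across arrays of the same protein sequence at different concentrations or buffers and across linkers.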
# [2] = molecular target: Gal(b1-3)GlcNAc(b1-3)Gal(b1-4)GlcNAc(b1-2)[Gal(b1-3)GlcNAc(b1-3)Gal(b1-4)GlcNAc(b1-6)]Man(a1-6)[Gal(b1-3)GlcNAc(b1-3)Gal(b1-4)GlcNAc(b1-2)Man(a1-3)]Man(b1-4)GlcNAc(b1-4)[Fuc(a1-6)]GlcNAc
# Procedure, shortened: as §1
# [3] = molecular target: Gal(b1-3)GlcNAc(b1-3)Gal(b1-4)GlcNAc(b1-3)Gal(b1-4)GlcNAc(b1-2)[Gal(b1-3)GlcNAc(b1-3)Gal(b1-4)GlcNAc(b1-3)Gal(b1-4)GlcNAc(b1-6)]Man(a1-6)[Gal(b1-3)GlcNAc(b1-3)Gal(b1-4)GlcNAc(b1-3)Gal(b1-4)GlcNAc(b1-2)Man(a1-3)]Man(b1-4)GlcNAc(b1-4)[Fuc(a1-6)]GlcNAc
# Procedure, shortened: as §1
# [4] = molecular target: Gal(b1-3)GlcNAc(b1-3)Gal(b1-4)GlcNAc(b1-6)[Gal(b1-3)GlcNAc(b1-3)]Gal(b1-4)Glc
# Procedure, shortened: as §1
# [5] = molecular target: Gal(b1-3)GlcNAc(b1-3)Gal(b1-4)[Fuc(a1-3)]GlcNAc
# Procedure, shortened: as §1
# [6] = molecular target: Gal(b1-3)GlcNAc(b1-3)Gal(b1-4)[Fuc(a1-3)]GlcNAc(b1-6)[Gal(b1-3)GlcNAc(b1-3)]Gal(b1-4)Glc
# Procedure, shortened: as §1
# [7] = molecular target: Gal(b1-3)GlcNAc(b1-3)GalNAc
# Procedure, shortened: as §1
# [8] = molecular target: Gal(b1-3)GlcNAc(b1-6)Gal(b1-4)GlcNAc
# Procedure, shortened: as §1
# [9] = molecular target: Gal(b1-3)GlcNAc(b1-6)GalNAc
# Procedure, shortened: as §1
# [10] = molecular target: Gal(b1-3)GlcNAc(b1-6)[Gal(b1-3)]GalNAc
# Procedure, shortened: as §1
# Gal(b1-3)GlcNAc6S = molecular target: Gal(b1-3)GlcNAc6S
# Procedure, shortened: as §1
# [11] = molecular target: Gal(b1-3)[Fuc(a1-4)]GlcNAc
# Procedure, shortened: as §1
# [12] = molecular target: Gal(b1-3)[Fuc(a1-4)]GlcNAc(b1-2)Man
# Procedure, shortened: as §1
# [13] = molecular target: Gal(b1-3)[Fuc(a1-4)]GlcNAc(b1-2)Man(a1-3)[Gal(b1-3)[Fuc(a1-4)]GlcNAc(b1-2)Man(a1-6)]Man(b1-4)GlcNAc(b1-4)[Fuc(a1-6)]GlcNAc
# Procedure, shortened: as §1
# [14] = molecular target: Gal(b1-3)[Fuc(a1-4)]GlcNAc(b1-3)Gal(b1-3)[Fuc(a1-4)]GlcNAc
# Procedure, shortened: as §1
# [15] = molecular target: Gal(b1-3)[Fuc(a1-4)]GlcNAc(b1-3)Gal(b1-4)[Fuc(a1-3)]GlcNAc
# Procedure, shortened: as §1
# [16] = molecular target: Gal(b1-3)[Fuc(a1-4)]GlcNAc(b1-6)GalNAc
# Procedure, shortened: as §1
# [17] = molecular target: Gal(b1-3)[GlcNAc(b1-6)]GalNAc
# Procedure, shortened: as §1
# [18] = molecular target: Gal(b1-3)[Neu5Ac(a2-6)]GalNAc
# Procedure, shortened: as §1
# [19] = molecular target: Gal(b1-3)[Neu5Ac(a2-6)]GlcNAc(b1-4)Gal(b1-4)Glc
# Procedure, shortened: as §1
# [20] = molecular target: Gal(b1-3)[Neu5Ac(b2-6)]GalNAc
# Procedure, shortened: as §1
# Gal(b1-4)Gal = molecular target: Gal(b1-4)Gal
# Procedure, shortened: as §1
# [21] = molecular target: Gal(b1-4)GalNAc(a1-3)[Fuc(a1-2)]Gal(b1-4)GlcNAc
# Procedure, shortened: as §1
# [22] = molecular target: Gal(b1-4)GalNAc(b1-3)[Fuc(a1-2)]Gal(b1-4)GlcNAc
# Procedure, shortened: as §1
# Gal(b1-4)Glc = molecular target: Gal(b1-4)Glc
# Procedure, shortened: as §1
# Gal(b1-4)Glc6S = molecular target: Gal(b1-4)Glc6S
# Procedure, shortened: as §1
# Gal(b1-4)GlcNAc = molecular target: Gal(b1-4)GlcNAc
# Procedure, shortened: as §1
# [23] = molecular target: Gal(b1-4)GlcNAc(a1-6)Gal(b1-4)GlcNAc
# Procedure, shortened: as §1
# Gal(b1-4)GlcNAc(b1-2)Man = molecular target: Gal(b1-4)GlcNAc(b1-2)Man
# Procedure, shortened: as §1
# [24] = molecular target: Gal(b1-4)GlcNAc(b1-2)Man(a1-3)Man(b1-4)GlcNAc(b1-4)GlcNAc
# Procedure, shortened: as §1
# [25] = molecular target: Gal(b1-4)GlcNAc(b1-2)Man(a1-3)[Gal(b1-4)GlcNAc(b1-2)Man(a1-6)]Man(b1-4)GlcNAc(b1-4)GlcNAc
# Procedure, shortened: as §1
# [26] = molecular target: Gal(b1-4)GlcNAc(b1-2)Man(a1-3)[Gal(b1-4)GlcNAc(b1-2)Man(a1-6)]Man(b1-4)GlcNAc(b1-4)[Fuc(a1-6)]GlcNAc
# Procedure, shortened: as §1
# [27] = molecular target: Gal(b1-4)GlcNAc(b1-2)Man(a1-3)[Gal(b1-4)GlcNAc(b1-2)Man(a1-6)][Gal(b1-4)GlcNAc(b1-4)]Man(b1-4)GlcNAc(b1-4)[Fuc(a1-6)]GlcNAc
# Procedure, shortened: as §1
# [28] = molecular target: Gal(b1-4)GlcNAc(b1-2)Man(a1-3)[Gal(b1-4)GlcNAc(b1-2)Man(a1-6)][GlcNAc(b1-4)]Man(b1-4)GlcNAc(b1-4)[Fuc(a1-6)]GlcNAc
# Procedure, shortened: as §1
# [29] = molecular target: Gal(b1-4)GlcNAc(b1-2)Man(a1-3)[GlcNAc(b1-2)Man(a1-6)]Man(b1-4)GlcNAc(b1-4)GlcNAc
# Procedure, shortened: as §1
# [30] = molecular target: Gal(b1-4)GlcNAc(b1-2)Man(a1-3)[GlcNAc(b1-4)][Gal(b1-4)GlcNAc(b1-2)Man(a1-6)]Man(b1-4)GlcNAc(b1-4)GlcNAc
# Procedure, shortened: as §1
# [31] = molecular target: Gal(b1-4)GlcNAc(b1-2)Man(a1-3)[Man(a1-6)]Man(b1-4)GlcNAc(b1-4)GlcNAc
# Procedure, shortened: as §1
# [32] = molecular target: Gal(b1-4)GlcNAc(b1-2)Man(a1-6)Man(b1-4)GlcNAc(b1-4)GlcNAc
# Procedure, shortened: as §1
binder,measurement,setting,value
"AT1G15820(2) (Arabidopsis thaliana), Q9LMQ2 (protein) MAMAVSGAVLSGLGSSFLTGGKRGATALASGVGTGAQRVGRKTLIVAAAAAQPKKSWIPAVKGGGNFLDPEWLDGSLPGDFGFDPLGLGKDPAFLKWYREAELIHGRWAMAAVLGIFVGQAWSGVAWFEAGAQPDAIAPFSFGSLLGTQLLLMGWVESKRWVDFFNPDSQSVEWATPWSKTAENFANYTGDQGYPGGRFFDPLGLAGKNRDGVYEPDFEKLERLKLAEIKHSRLAMVAMLIFYFEAGQGKTPLGALGL",glycan array binding signal (z-score),[1],1.29
same,glycan array binding signal (z-score),[2],0.235
same,glycan array binding signal (z-score),[3],1.41
same,glycan array binding signal (z-score),[4],0.059
same,glycan array binding signal (z-score),[5],-0.125
same,glycan array binding signal (z-score),[6],-0.541
same,glycan array binding signal (z-score),[7],-0.011
same,glycan array binding signal (z-score),[8],-0.189
same,glycan array binding signal (z-score),[9],0.408
same,glycan array binding signal (z-score),[10],0.112
same,glycan array binding signal (z-score),Gal(b1-3)GlcNAc6S,-0.975
same,glycan array binding signal (z-score),[11],-0.161
same,glycan array binding signal (z-score),[12],-0.603
same,glycan array binding signal (z-score),[13],-0.308
same,glycan array binding signal (z-score),[14],-0.258
same,glycan array binding signal (z-score),[15],-0.396
same,glycan array binding signal (z-score),[16],-0.229
same,glycan array binding signal (z-score),[17],0.174
same,glycan array binding signal (z-score),[18],-0.47
same,glycan array binding signal (z-score),[19],-0.062
same,glycan array binding signal (z-score),[20],-0.341
same,glycan array binding signal (z-score),Gal(b1-4)Gal,-0.449
same,glycan array binding signal (z-score),[21],0.383
same,glycan array binding signal (z-score),[22],-0.276
same,glycan array binding signal (z-score),Gal(b1-4)Glc,0.004
same,glycan array binding signal (z-score),Gal(b1-4)Glc6S,0.098
same,glycan array binding signal (z-score),Gal(b1-4)GlcNAc,-0.146
same,glycan array binding signal (z-score),[23],-0.192
same,glycan array binding signal (z-score),Gal(b1-4)GlcNAc(b1-2)Man,0.209
same,glycan array binding signal (z-score),[24],-0.043
same,glycan array binding signal (z-score),[25],0.213
same,glycan array binding signal (z-score),[26],-0.4
same,glycan array binding signal (z-score),[27],-0.43
same,glycan array binding signal (z-score),[28],-0.422
same,glycan array binding signal (z-score),[29],-0.663
same,glycan array binding signal (z-score),[30],-0.318
same,glycan array binding signal (z-score),[31],0.091
same,glycan array binding signal (z-score),[32],0.118
